The text below walks through data of ChEMBL document CHEMBL4888484, “Replenishing the malaria drug discovery pipeline: Screening and hit evaluation of the MMV Hit Generation Library 1 (HGL1) against asexual blood stage Plasmodium falciparum ,using a nano luciferase reporter read-out” (2022).

The whole screen tested about 150,000 compounds, of which about 540 (0.36%) showed an effect of 50% or more. The list shows a part of the results.

Broadly, the % Inhibition is the change of the read-out against control, counted positive when it falls.

In this experiment the test system is Plasmodium falciparum. The experiment in a line: Primary screen in NF54 nanoGlo assay, in single point, at 2uM, 72h; a lower Z score goes with more inhibition. The format is functional, Erythrocyte. The note with it: timepoint 72 hour.
In the case of `Cc1cnc(CCNC(=O)c2cccnc2)n1C(C)C`, the “% Inhibition” value was -9% and the Z score is 0.98.
Take `O=C(c1cc(-c2cccnc2)nc2ccccc12)N1CCN(Cc2ccncc2)CC1`: the “% Inhibition” value was -22% and the Z score was 1.98.
As to `Cc1noc2ncnc(N3CCC(C)(C)S(=O)(=O)CC3)c12`, the “% Inhibition” value is -9% and the Z score is on record as 1.42.
Consider `Cc1n[nH]cc1CNCCc1ccccn1`, for which the “% Inhibition” value is 0% and the Z score is listed as 0.03.
For the molecule `O=C1CN(Cc2cc(CN3CCCC3)cs2)CCN1Cc1ccccc1F`, the “% Inhibition” value worked out at 2% and the Z score is reported as -0.3.
Regarding `CC(C)(CNC(=O)C[C@@H]1C(=O)Nc2c(F)cccc21)C1CCC1`, the “% Inhibition” value is listed as 8% and the Z score was -0.99.
For `CCOc1cc(C2N(c3ccc(C)cc3)CCN2c2ccc(C)cc2)ccc1OCc1ccc(F)cc1` the same measures were -4% and 0.57.
`Cn1nccc1C(=O)N1CC[C@H](c2nc(-c3ccccc3)no2)C1`: the “% Inhibition” value is -11% and the Z score is 1.37.
Consider `COc1cnccc1[C@H](C)NCc1nc2ccccc2s1`, for which the “% Inhibition” value was found to be 1% and the Z score was -0.19.
`O=C(NC1CC1)[C@H]1CCCN(CC(=O)N2CCCCC2)C1`: the “% Inhibition” value was determined as 0% and the Z score was determined as 0.03.
For `O=C(Nc1nc2c(s1)CN(C(=O)c1cnn(-c3ccccc3)n1)CC2)[C@@H]1CCCO1`, the “% Inhibition” value is -21% and the Z score amounted to 3.41.
Consider `CCC(Oc1ccc2c(c1)C(c1ccccc1)N(C(=O)C1CCCC1)CC2)C(=O)NC1CC1` (stereo unspecified), for which the “% Inhibition” value is -6% and the Z score came to 0.75.
The matching figures for `O=C(O)C1CCC(C(=O)Nc2cccc3[nH]ccc23)CC1` (stereo unspecified): 4% and -0.59.
For the molecule `C[C@H](O)c1cccc(N2CCC(CC3CC3)(C(=O)O)CC2)n1`, the “% Inhibition” value was -1% and the Z score is reported as 0.14.
Take `Cc1nnc(NC(=O)NCc2ccccc2CN2CCCCC2)s1`: the “% Inhibition” value is given as 12% and the Z score is -1.49.
For `Cc1nc(-c2cccc(CNC(=O)CC[C@H]3CCCO3)c2)cs1`, the “% Inhibition” value came to 3% and the Z score is on record as -0.44.
The matching figures for `Cc1cc(C(=O)NC2CCN(C)C2c2ccc(F)c(F)c2)c(C)n1-c1nccs1` (stereo unspecified): -16% and 1.66.
The matching figures for `Cc1nn(C)c(C)c1NC(=O)[C@@H]1CCCc2ccccc21`: 6% and -0.79.
For the molecule `CCn1cncc1-c1nc2c(cnn2Cc2ccncc2)[nH]1`, the “% Inhibition” value was -20% and the Z score was 2.53.
As for `CCC(=O)N1CCCN(c2cc(=O)n(C(C)C)c(=O)n2C(C)C)CC1`, the “% Inhibition” value is -4% and the Z score came out at 0.59.
With `COc1cccc(C(=O)N2CC(F)(F)C[C@H]2c2nc(C)no2)c1OC`, the “% Inhibition” value is reported as -3% and the Z score is given as 0.56.
The matching figures for `O=C([C@H]1CCc2nncn2C1)N1CC(c2cccc(Cl)c2)C1`: -8% and 0.77.
Consider `COCC(=O)N1CCC(Cc2n[nH]c(=O)n2-c2ccccc2F)CC1`, for which the “% Inhibition” value is listed as -9% and the Z score stood at 1.63.
As to `Cc1cc(CC(C)C)nc(N2CC[C@H](NCCc3ncnn3C)C2)n1`, the “% Inhibition” value is recorded as -7% and the Z score is reported as 1.41.
As for `Cn1nc(CNC(=O)C2CCCCC2)c2c1CCCC2`, the “% Inhibition” value is listed as -7% and the Z score worked out at 1.38.
As to `COc1ccccc1CC(C)(C)NC(=O)[C@@H]1CCCc2nn(C)cc21`, the “% Inhibition” value is given as -2% and the Z score turned out to be 0.27.
`Cc1n[nH]c([C@H]2CCN(Cc3cc(Cl)ccc3F)C[C@H]2N(C)C)n1`: the “% Inhibition” value was -2% and the Z score is listed as 0.31.
The matching figures for `O=C(Cc1cc(F)c(F)cc1F)N1CCCC[C@H]1c1ncon1`: -2% and 0.22.
The matching figures for `CN(CCn1cccn1)C(=O)NCCc1ccccc1C(F)(F)F`: -1% and 0.16.
For `COC(=O)N1CCN(C(=O)C2CCCC2)CC1` the same measures were -8% and 1.1.
`COc1ccc(C(=O)N2C[C@@H]3C[C@H]2C[C@@H]3NC(=O)c2ccccc2)cc1F`: the “% Inhibition” value stood at 39% and the Z score is recorded as -4.44.
For the molecule `O=C(Nc1n[nH]c2ccc(F)cc12)[C@H]1OCC[C@H]1Cn1cccn1`, the “% Inhibition” value is recorded as -2% and the Z score was determined as 0.29.
`Cc1nn(C)cc1[C@H](C)NCc1c(C(=O)N2CCCCCCC2)nc2ccc(Cl)cn12`: the “% Inhibition” value is listed as 14% and the Z score is -2.56.
Regarding `CC(C)c1nccc(NC[C@]2(CO)COCCN2C)n1`, the “% Inhibition” value is -7% and the Z score is recorded as 1.41.
In the case of `CCC1(Cn2cc(C(=O)N[C@@H]3CCC[C@@H]3n3ccnc3)nn2)COC1`, the “% Inhibition” value is -14% and the Z score turned out to be 2.18.
For `COc1ccc(Cl)cc1S(N)(=O)=O`, the “% Inhibition” value is given as -3% and the Z score is on record as 0.66.
For `CCn1cc(C)c(C(=O)O)c1CC(=O)Nc1cccc(C)c1C` the same measures were -14% and 1.84.
Turning to `Cc1cccnc1C[C@H](C)n1cc(-c2c(C)n(C)n(-c3ccccc3)c2=O)nn1`, the “% Inhibition” value is recorded as -20% and the Z score worked out at 1.86.
The matching figures for `Cc1noc(-c2ccc(OC(F)(F)F)cc2)c1C(=O)NCCc1ccc(N)cc1`: -1% and 0.2.
Take `Cc1ccc(-c2cc(-c3ccc(O)c(Cl)c3)c(C#N)c(N)n2)nc1`: the “% Inhibition” value is on record as -3% and the Z score was 0.38.
For `O=C(NS(=O)(=O)CC1CCCCC1)c1csc(Cl)c1`, the “% Inhibition” value is -10% and the Z score was determined as 1.33.
`CCC(=O)N1CCC(Nc2ccc(F)cc2OC2CCCC2)CC1`: the “% Inhibition” value is listed as 2% and the Z score was -0.28.
As for `O=C(c1cc(O)nc2ccccc12)N1CC[C@H](Oc2ncccc2Br)C1`, the “% Inhibition” value was -12% and the Z score was 2.33.
